Assay results published in US20090221441A1, “THREE-DIMENSIONAL CELLULAR ARRAY CHIP AND PLATFORM FOR TOXICOLOGY ASSAYS” (Rensselaer Polytechnic Institute, priority 2005, published 2009).
Read-outs that look alike come from different tables or passages of the source.

Tests used:
[1] = Cytotoxicity of compounds and their P450-generated metabolites, Hep3B DataChip stamped with MetaChip; details: human
Method: (§1) The cytotoxicity of drugs (or drug metabolites) was determined by staining the slide containing the cells with a Live/Dead test kit (Molecular Probes) that produces a green fluorescent response from living cells. At the end of the 3-day culture period post stamping, the three-dimensional cell chip (DataChip) was rinsed three times in PBS for 5 min each. One mL of a dye solution containing 0.5 μM calcein AM was applied to each three-dimensional cell chip using a glass slide with 1 mm thick perimeter gasket acting as a barrier to prevent loss of the dye solution.
(§2) Following incubation for 50 minutes at room temperature, excess dye in the collagen-gel drops was removed by incubating the slides in a petri dish containing 16 mL of PBS for 30 min on a gyratory shaker at 60 rpm. The three-dimensional cell chip was dried thoroughly with nitrogen. The three-dimensional cell chip was scanned with the GenePix® Professional 4200A scanner equipped with blue laser and standard blue filter to determine the green fluorescent intensity and was quantified from the scanning image using GenePix Pro 6.0 (Molecular Devices Co.).
(§3) Percent live cells=(FReaction/FMax)×100
(§4) where FReaction is the green fluorescence intensity of the reaction spot and FMax is the green fluorescence intensity of untreated fully viable cells.
(§5) For efficient stamping, MTMOS-coated glass slides were prepared to contain a sol-gel barrier on the periphery of the slides.
(§6) To this end […] of methyltrimethoxysilane (MTMOS) sol was prepared by mixing 2 mL of MTMOS with 1 mL of HCl (10 mM) and sonicated for 10 min. The sol was spotted on the periphery of the MTMOS-coated slide and then the slide was baked in an oven for 30 min at 120° C.
(§7) The MetaChip was stored at −80° C. for 1 day prior to use. Cytotoxicity studies were performed by spotting 20 nL of test compound in distilled water (0-2 mM) onto the MetaChip spots and partially dried.
(§8) This was followed by stamping of the three-dimensional cell chip (DataChip) containing either MCF7 or Hep3B cells onto the MetaChip.
(§9) To this end, a MetaChip consisting of 20×54 alginate spots was prepared; each spot containing a single human P450 isoform (CYP1A2, CYP2D6, or CYP3A4), a mixture of the three isoforms, or no P450 as a test compound only control. Addition of test compounds was carried out by overlay spotting of solutions of these compounds onto the MetaChip, which was then stamped on top of the DataChip.
(§10) Using three DataChips in combination with three MetaChips, IC50 values for 27 compounds and their P450-generated metabolites against human Hep3B cells were determined. […] The three P450 isoforms were used along with an equimolar mixture of the three isoforms and a test compound only control without P450. The test compounds were added to the MetaChip, which was then stamped onto the DataChip and incubated for 6 h. This was followed by removing the DataChip, rinsing with growth medium, incubating in media for 3 days, and then stained for cell viability.

human Hep3B cells = assay: as above
Method: as §1, §2, §3, §4, §5, §6, §7, §8, §9, §10

MCF7 cells [2] = assay: cells; details: Homo sapiens
MCF7 cells [3] = details: read-out: IC50, 2D literature values; 2D cultures in 96-well plates, Refs 1-5; cited from earlier work
MCF7 cells [4] = assay: cells; details: Homo sapiens, MCF7, read-out: Calculated IC50, Alginate DataChip (MCF7)
Method: as §1, §2, §3, §4
(§11) The alginate-containing three-dimensional cell chip (DataChip) was prepared as follows. […]

[5] = test system: Hep3B human hepatoma cells; assay: cells; details: read-out: Calculated IC50, Alginate DataChip (Hep3B)
Method: as §1, §2, §3, §4, §11

MCF7 cells [6] = assay: cells; details: Homo sapiens; remark: listed apart in the source
[7] = test system: MCF7 human breast cancer cells; assay: cells; details: MCF7, read-out: IC50 evaluated on the DataChip
Method: as §1

[8] = IC50, CYP1A2, Hep3B DataChip, MetaChip spots with CYP1A2
[9] = IC50, CYP2D6, Hep3B DataChip, MetaChip spots with CYP2D6
[10] = IC50, CYP3A4, Hep3B DataChip, MetaChip spots with CYP3A4
[11] = IC50, Mixture, Hep3B DataChip, equimolar mixture of CYP1A2, CYP2D6, CYP3A4
[12] = IC50, No P450, Hep3B DataChip, test compound only control without P450

Cc1ccccc1C(OCCN(C)C)c1ccccc1 (stereo not drawn) [Orphenadrine]
IC50 at 6 h [1, 8]: 179 ± 19.4 µM
IC50 at 6 h [1, 9]: 169 ± 27.8 µM
IC50 at 6 h [1, 10]: 116 ± 16.3 µM
IC50 at 6 h [1, 11]: 83.8 ± 17.2 µM
IC50 at 6 h [1, 12]: 20.5 ± 3.5 µM
Activation or deactivation of the toxic response by CYP1A2 (human Hep3B cells): moderately to weakly deactivated
Activation or deactivation of the toxic response by CYP2D6 (human Hep3B cells): deactivating

CSc1ccc2c(c1)N(CCC1CCCCN1C)c1ccccc1S2 (stereo not drawn) [Thioridazine]
IC50 at 6 h [1, 8]: 13.6 ± 1.08 µM
IC50 at 6 h [1, 9]: 18.8 ± 1.22 µM
IC50 at 6 h [1, 10]: 46.6 ± 3.96 µM
IC50 at 6 h [1, 11]: 35.4 ± 3.18 µM
IC50 at 6 h [1, 12]: 31.6 ± 31.6 µM

CC/C(=C(\c1ccccc1)c1ccc(OCCN(C)C)cc1)c1ccccc1 [Tamoxifen, tamoxifen]
IC50 (MCF7 cells [2]; MCF7, read-out: Calculated IC50, 3D 96-well plate): 17.3 ± 3.2 µM
IC50 (MCF7 cells [2]; MCF7, read-out: IC50 from 3D control): 28.8 ± 0.2 µM
IC50 at 6 h [1, 8]: 113 ± 30.2 µM
IC50 at 6 h [1, 9]: 28.4 ± 2.86 µM
IC50 at 6 h [1, 10]: 398 ± 155 µM
IC50 at 6 h [1, 11]: 63.8 ± 15 µM
IC50 at 6 h [1, 12]: 83 ± 12.8 µM
IC50 (MCF7 cells [3]): 1 to 8 µM
IC50 (MCF7 cells [4]): 13.3 ± 4.8 µM
IC50 [5]: 19.9 ± 7.7 µM
IC50 (MCF7 cells [6]; MCF7, read-out: Calculated IC50, 2D 96-well plate): 4.44 ± 0.32 µM
IC50 (MCF7 cells [6]; MCF7, read-out: IC50 from 2D control in the 96-well plate): 8.5 ± 0.2 µM
IC50 [7]: 31.2 ± 0.8 µM

CC(C)NCC(O)COc1cccc2ccccc12 (stereo not drawn) [Propranolol]
IC50 at 6 h [1, 8]: 69.4 ± 10.6 µM
IC50 at 6 h [1, 9]: 74.6 ± 9.02 µM
IC50 at 6 h [1, 10]: 86 ± 13.1 µM
IC50 at 6 h [1, 11]: 86.1 ± 11.2 µM
IC50 at 6 h [1, 12]: 95.9 ± 13.6 µM
